PubChem BioAssay AID624296 (National Center for Advancing Translational Sciences (NCATS), 2012)
Hit rate of the full screen: of about 350,000 compounds, about 9,900 (2.8%) were called active. Inconclusive means that the source gave no clear call. Such entries were picked first, then a sample of the others. Calls follow the shape of the dose curve; as a rule, active = well fitted activation curve with a large enough effect; inconclusive = small, poorly fitted or top-dose-only effect; inactive = no such curve, though single readings can be large or run the other way. Potencies of inconclusive entries are left out as doubtful fits.

Experiment: A quantitative high throughput screen for small molecules that induce DNA re-replication in MCF 10a normal breast cells. Also: nearly all actives have a fitted effect of over 50% in size.
Conditions: MCF 10A DNA re-replication, Hoechst nuclear intensity, 48 h; series mostly up to 46.1 µM
Potency is read from the fitted curve at half-maximal effect; tags tell the direction and shape of the fitted curve.

| Compound | Potency |
| --- | --- |
| Cc1cc(C)n2nc(SCc3nnc(SCCCCl)o3)nc2n1 | inconclusive [activator, partial curve, poor fit] |
| CC(C)C(c1nnnn1C1CCCCC1)N1CCc2ccccc21 (stereo not drawn) | inconclusive [activator, single point] |
| COc1ccc(Nc2cc(C(=O)NCCCN3CCN(C)CC3)c3ccccc3n2)cc1 | inconclusive [activator, single point] |
| Cc1ccc(NC(=O)c2ccc(NS(=O)(=O)c3c(C)noc3C)cc2)cc1C | inconclusive [activator, single point] |
| CC(=O)[C@H]1CC[C@H]2[C@@H]3CCC4=CC(=O)CC[C@]4(C)[C@H]3CC[C@]12C | inactive |
| CC(=O)Oc1ccc(-c2cccc(C(=O)N(C)c3ccc(O)cc3)c2)cc1 | inactive |
| CCc1nn(C(CC)C(=O)NCc2cccc(OC)c2OC)c(=O)c2cc3occc3n12 (stereo not drawn) | inconclusive [activator, single point] |
| Cc1cccc(/C=C2\Sc3ccc(C(=O)N4CCC(C(N)=O)CC4)cc3N(C)C2=O)c1 | inactive |
| O=C(c1ccc2c(=O)n(Cc3ccco3)c(=S)[nH]c2c1)N1CCN(Cc2ccccc2)CC1 | inconclusive [activator, partial curve, poor fit] |
| CCO[C@@H]1OC(C(=O)N2CCCCCCC2)=C[C@H](c2cn(C(C)=O)c3ccccc23)[C@H]1CCCO | inconclusive [activator, single point] |
| C/C(=N\NC(=O)COc1ccccc1[N+](=O)[O-])c1cccc(NC(=O)c2ccncc2)c1 | inconclusive [activator, partial curve, poor fit] |
| Nc1c(C(=O)Nc2ccccc2)sc2nc(-c3ccco3)ccc12 | active: 18.4 µM |
| Cn1c(=O)c2c(O)c(Cc3ccccc3)c(=O)n(C)c2n(C)c1=O | inconclusive [activator, full curve, poor fit] |
| CCOC(=O)[C@@H]1[C@H]2COc3cc(OC)ccc3[C@@H]2N2C(=O)N(c3ccccc3)C(=O)[C@@]12C | inactive |
| Cc1ccccc1Nc1scc(-c2ccc(Br)cc2)[n+]1-c1ccccc1C | inconclusive [activator, partial curve, poor fit] |
| CCOc1c(Cl)cc(CNCC(O)c2ccccc2)cc1OC (stereo not drawn) | inconclusive [activator, single point] |
| Fc1ccc(NC(=S)Nc2ccccc2OC(F)F)cc1Cl | inconclusive [activator, single point] |
| CSc1nnc(-c2sccc2OCc2ccc(C)cc2)n1C | inconclusive [activator, partial curve] |
| COc1cc(OC)c2c(-c3ccccc3)cc(C3CCCCC3)nc2c1 | inconclusive [activator, single point] |
| Cc1ccc(-c2cc(C(F)(F)F)n3nc(C(=O)Nc4ccon4)cc3n2)cc1C | inconclusive [activator, partial curve, poor fit] |
| COc1ccc(CNC(=O)c2cc(-c3ccncc3)nc3c(C)cc(C)cc23)cc1OC | inconclusive [activator, partial curve, poor fit] |
| O=C(NC1CCCCC1)c1ccc(N2CCCC2=O)cc1 | inconclusive [activator, single point] |
| O=C1CN(C(=O)CSc2nnc(C3CC3)n2-c2ccccc2)c2ccccc2N1 | inconclusive [activator, full curve, poor fit] |

| Compound | Potency |
| --- | --- |
| CCNc1nc(CN2CCOCC2)nc2sc3c(c12)CCC3 | inactive |
| S=C(NCCc1ccccc1)Nc1nccs1 | inactive |
| COc1ccc(S(=O)(=O)C(C#N)c2nc3ccccc3nc2N2CCCCC2)cc1 (stereo not drawn) | inconclusive [activator, single point] |
| Cc1ccc(C(=O)NC(=O)CSc2ncccc2C(=O)O)cc1 | inactive |
| Cc1cc2c(Nc3ccccc3)ncnc2s1 | inactive |
| Clc1ncnc2scc(-c3ccc(Br)cc3)c12 | inconclusive [activator, single point] |
| COC(=O)c1c(S(C)(=O)=O)nc(-c2ccccc2)[nH]c1=O | inconclusive [activator, single point] |
| O=C1c2ccccc2[C@@H]2C[C@@H](O)[C@H](Nc3ccccc3-c3ccccc3)CCN12 | inactive |
| CO[C@@H]1O[C@@H]2COC(c3ccccc3)O[C@@H]2[C@@H](OC)[C@@H]1O (stereo partly drawn) | inconclusive [activator, single point] |
| N#Cc1c(-c2ccco2)cc(C2CC2)nc1SCC(=O)c1ccccc1 | inconclusive [activator, single point] |
| CCOC(=O)C1CCCN(C(=O)CSc2nnc3nc(C)cc(C)n23)C1 (stereo not drawn) | inactive |
| COc1cccc(CNc2ccccc2O)c1OCc1ccccc1F | inconclusive [activator, full curve, poor fit] |
| CCn1nc(NS(=O)(=O)c2ccc(NC(C)=O)cc2)c2cc3ccccc3nc21 | inactive |
| Cc1cccc(C2c3[nH]c4ccccc4c3CCN2C(=O)c2cc(-c3cccn3C)n[nH]2)n1 (stereo not drawn) | inconclusive [activator, single point] |
| O=C(Nc1ccccc1)OCc1cnc(Cl)s1 | inactive |
| CN1CCN(S(=O)(=O)c2cccc(C(=O)Nc3nc(-c4ccccc4)cs3)c2)CC1 | inconclusive [activator, partial curve, poor fit] |
| Cc1c(C(=O)Nc2ccc(-c3nnc4n3CCCCC4)cc2)oc2ccc(Br)cc12 | inactive |
| O=C(c1cccc(F)c1)N1CCN(c2cc(N3CCCCC3)c(F)cc2[N+](=O)[O-])CC1 | inconclusive [activator, partial curve, poor fit] |
| COc1ccccc1-c1nnc(-c2ccc(C)cc2)o1 | inactive |
| CCN1CCN(CCc2nc3cc(NC(=O)COc4ccccc4)ccc3n2C)CC1 | inactive |
| C=CCN1C(=O)C(CC(C)C)NC1=S (stereo not drawn) | inactive |
| Cc1ccc(OCC(=O)NC(=S)Nc2cccc(NC(=O)c3ccccc3)c2)cc1 | active: 14.6 µM |
| Cc1ccc(N2CC(C(=O)Nc3cc(C(F)(F)F)ccc3N3CCCC3)CC2=O)cc1 (stereo not drawn) | inconclusive [activator, single point] |

| Compound | Potency |
| --- | --- |
| C/C(=N\NC(=O)c1ccc([N+](=O)[O-])cc1)c1cc2ccccc2oc1=O | inactive |
| O=C(CN1C(=O)CC(c2ccco2)Sc2ccccc21)NCc1ccc2c(c1)OCO2 (stereo not drawn) | inconclusive [activator, partial curve, poor fit] |
| CC1CCCCN1S(=O)(=O)c1ccc(C(=O)N(CCCN(C)C)c2nc3ccc(Br)cc3s2)cc1 (stereo not drawn) | inconclusive [activator, single point] |
| CC(C)C(C)NC(=O)CN1C(=O)NC2(CCc3ccccc3C2)C1=O (stereo not drawn) | inconclusive [activator, full curve, poor fit] |
| COC(=O)[C@@H]1CCCN1C(=O)CCc1nnc(CCc2c[nH]c3ccccc23)o1 | inconclusive [activator, partial curve, poor fit] |
| O=C(COC(=O)c1c2c(nc3ccccc13)CCCCC2)NCc1ccc2c(c1)OCO2 | inconclusive [activator, single point] |
| CS(=O)(=O)N(Cc1ccc(Cl)cc1)c1ccc(C(=O)NCCSc2ccccn2)cc1 | inconclusive [activator, partial curve] |
| CC(=O)Nc1nc(NCc2ccccc2Cl)n(-c2ccccc2)n1 | inactive |
| COc1ccccc1CC(=O)Nc1nc(-c2ccc(F)c(F)c2)cs1 | inactive |
| Cc1nc(NC(=O)c2cnccn2)ccc1Br | inactive |
| O=C(C=Cc1ccccc1O)c1ccccc1O | inconclusive [activator, single point] |
| CCn1c(=O)cc(SCC(=O)NCc2ccc(C)cc2)c2ccccc21 | inconclusive [activator, partial curve] |
| O=C(Nc1cccc2ccccc12)N1CC=C(c2ccccc2)CC1 | inconclusive [activator, partial curve, poor fit] |
| O=C1C(NS(=O)(=O)c2ccc(Cl)cc2)=C(N2CCCCC2)C(=O)c2ccccc21 | inconclusive [activator, single point] |
| Cc1ccc(-c2cc3nc(C)cc(NCc4ccco4)n3n2)cc1 | active: 5.17 µM |
| Cc1ccc(C)c(S(=O)(=O)N2CCCOC2CNC(=O)C(=O)NCc2cccs2)c1 (stereo not drawn) | inactive |
| CC(C)NC(=S)N/N=C/c1ccc(C(C)(C)C)cc1 | inconclusive [activator, single point] |
| N/C(=N\OC(=O)c1cccc(Cn2cc(C(F)(F)F)ccc2=O)c1)c1ccc(Cl)cc1 | inconclusive [activator, single point] |
| CCCCC1CC1C(=O)Nc1ccc(OC)c(OC)c1 (stereo not drawn) | inconclusive [activator, single point] |
| Cc1ccccc1OCC(=O)N/N=C/c1ccc2c(c1)OCCO2 | active: 11.6 µM |
| CCS(=O)(=O)N1CCN(c2ccc(C(=O)NC34CC5CC(CC(C5)C3)C4)cc2[N+](=O)[O-])CC1 | inactive |
| O=S(=O)(c1ccccc1)N1CN(c2ccc(F)cc2F)c2nc3ccccc3nc21 | inconclusive [activator, partial curve, poor fit] |
